Values marked as one replicate rest on one cluster of the flow cell; about a third of the high ones do not repeat.

The data set relates to ATP. Description: switch fluorescence ratio, 500 uM ATP over buffer (Cy3 cluster intensity, sum of 5 cycles each) (fold (ratio)); higher = stronger signal-on switching upon ATP binding; sequences stand for … in TCGTCGGCAGCGTCAGATGTGTATAAGAGACAGTTTTTTTTTTTTTTTTTTTTTTTTT…TC. The settings on record: aptamer strand: ATP DNA aptamer (quencher-CACCTGGGGGAGTATTGCGGAGGAAGG + anchor), 100 nM annealed; ATP concentration: 500 uM; one replicate. Put shortly:
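Five buffer/ATP imaging cycles were run on Cy3-labelled switching-strand clusters on a modified Illumina MiSeq flow-cell, with NaOH stripping and re-annealing between cycles. In each cycle, clusters annealed to 100 nM quencher-labelled ATP aptamer were imaged in selection buffer, then after 15 min with 500 uM ATP at 22 °C. Per cluster, the fluorescence ratio is summed target-cycle over summed buffer-cycle Cy3 intensity, averaged per switch-domain sequence. Only clusters within 100-1000 RFU were kept.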
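Further: ATP exposure 15 min at 22 °C before imaging.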

For ATGTTATGCG, the switch fluorescence ratio amounted to 0.986.
For ATAGGCGTAT, the switch fluorescence ratio amounted to 0.979.
Consider ACTGGTCCGT, for which the switch fluorescence ratio amounted to 1.04.
Regarding AGCTGATTCT, the switch fluorescence ratio is 0.969.
As for ATCCAAACTC, the figure is 1.06; as for GGCCGTAGCA, 1.06; as for GCCGATAGAA, 0.942.
TTTTGAAGAA: the switch fluorescence ratio was determined as 1.05.
The value for TTTGAAGGTT was 1.49; that for GCGAGCCTGC was 0.986; that for ATTGATATAG was 0.994.
As for ATGTTCCGAC, the figure is 1.39.
Take TTTCCAAATC: the switch fluorescence ratio worked out at 0.967.
TAGCGATTAT: the switch fluorescence ratio stood at 1.06.
As for TAATGTCGGT, the figure is 0.995; as for ACTACGTGTC, 1.25.
The value for TTATCGGCGA was 1.07.
The value for AAGCTAGGGG was 0.974; that for CTTATGGGTG was 1.
With GCTGGCATGC, the switch fluorescence ratio is 0.99.
For the sequence GCTGGCAAGA, the switch fluorescence ratio is 1.
ATCCGAAGGT: the switch fluorescence ratio worked out at 0.999.
In the case of ATTAAGCACG, the switch fluorescence ratio turned out to be 1.11.
With CTTAAAATCC, the switch fluorescence ratio came to 1.01.
CAGTGATAGG: the switch fluorescence ratio is 1.01.
For the sequence CCGCGACGAG, the switch fluorescence ratio was 2.32.
Regarding CCATACTTTG, the switch fluorescence ratio turned out to be 0.973.
For the sequence CGCCTGGGCG, the switch fluorescence ratio is 1.03.
The value for ACCACCTAGC was 1.17; that for AGGGTCATAG was 0.984.
As for AAGGCCATCG, the figure is 1.02; as for CTTATTCCGG, 1.03; as for ATAGGATTGG, 0.998.
Take TAAGTACATA: the switch fluorescence ratio came to 1.23.
As for AGGGGCCAGG, the switch fluorescence ratio came to 1.09.
The value for CGAAGGGAGG was 1.08; that for TAGGTTATTC was 0.97; that for TTAAAACACA was 1.28.
ATATGTCCAA: the switch fluorescence ratio amounted to 1.01.
In the case of ACCCGATGCT, the switch fluorescence ratio amounted to 1.18.
As for TCGGATTGG, the switch fluorescence ratio amounted to 0.999.
TTCCGGGAG: the switch fluorescence ratio stood at 1.11.
Consider AGACCATTCA, for which the switch fluorescence ratio came to 1.05.
As for TCCTGACGGG, the figure is 1.01; as for AACAAACGC, 1.31; as for ATCACAGCTT, 1.01.
As to ATTGGGTGAG, the switch fluorescence ratio is 1.03.
CATATGAC: the switch fluorescence ratio amounted to 1.38.
Consider GGGAACCTAC, for which the switch fluorescence ratio was 1.56.
Take TTTGCGTTGA: the switch fluorescence ratio was found to be 1.04.
On to AAAACATATA, for which the switch fluorescence ratio was determined as 1.02.
In the case of TACTTTCGCT, the switch fluorescence ratio amounted to 0.994.
For CCGGGTTTCT, the switch fluorescence ratio came to 1.12.
As for GCGGGATTCC, the switch fluorescence ratio worked out at 1.02.
GCAGAATAGC: the switch fluorescence ratio was 1.01.
CCTAATTGGC: the switch fluorescence ratio worked out at 0.957.
In the case of AATCACCCGT, the switch fluorescence ratio turned out to be 0.997.
As for CGTATATGGT, the switch fluorescence ratio stood at 1.
Turning to AATGTAGGGC, the switch fluorescence ratio amounted to 1.04.
As for ACTAGCAGAG, the switch fluorescence ratio was 1.
Turning to ACCCGGATCC, the switch fluorescence ratio was found to be 1.09.
The value for GATAATGTAC was 1.11.
With CGGGAAACTT, the switch fluorescence ratio came to 1.08.
The value for CTGTCATCCG was 0.992; that for AGACGGAATG was 1.03; that for TGGGTTGGA was 1.01.
As for TATTACACTA, the switch fluorescence ratio was found to be 1.12.
Turning to CAATAATTGG, the switch fluorescence ratio is 0.98.
The value for CTTCTGGGTC was 0.993.
The value for CTCGTAAAAA was 1.19.
Turning to GGCTCTACCT, the switch fluorescence ratio was found to be 1.12.
For the sequence TAGCTTTGG, the switch fluorescence ratio was found to be 0.978.
For TTTACTGG, the switch fluorescence ratio came out at 1.03.
The value for GGACTCTATG was 1.01; that for GCGGGCCAAT was 1.29; that for TGTTGCCTCG was 0.962.
As for TAGCATGCTT, the figure is 1.03; as for ACACGTCTTC, 1.02.

The values above are taken from the supplement of paper PMC10126150.
